Test results from the RNAGym collection of RNA variant scans (doi:10.7554/elife.90254).
The source gives no read counts; variants with many changes may rest on few reads.

B1: LINE1-full (parent)
chain: UACGUAGGUGGUUUUCCCCUGAUAGUGCUAAGGGGGCCUGGAAGUUUGGACUGGGCAGAGCUCAACACAGCGUGGCAAAGUGGCUGUGGCUAGACUGCCUCUCUGGAUUCCUCGUCACUCAGCAGGGCAUCUCUGAGAGAAAUGCC

Variants of: B1
Assay: self-cleavage, relative activity (ratio to wild type); higher = more cleavage; in vitro, sequencing; the parent is a self-cleaving ribozyme

Variant	self-cleavage
C3G A22U A124G	0.92
A2U A22U A141G	1.12
C3A G83A U115A	0.51
A2G U109G A136G	1.11
C3A U39C U62C	0
A2G U12G U23C U45C A50U U134A A136G	0.57
C3U G55A A77G G114A	0.22
C3U A121G A142G	1.65
A2U U9C U47C C90U U109A	0.11
A2G U15C U23A	1.53
A2G U45C A77U A142G	1.12
C3A G10A A24G A43U	0.64
A2U U13G U87A A141G	0.3
C3A G86A U91C	0.09
A2G U14C A78U A107G	0.79
A2U U9A U87C	0.57
C3U A67C U104A U115C	0.23
C3U U12G U73A A78G	0.51
A2G U39C A69G G135A U143C	0
A2G U47C U81A U109C A136G	1.84
A2G U14C A30U A50G U81G	0
C3U U73A U81G A129U A136G	0.68
C3U A79U U85C U143C	0.13
C3A A24C U85A C113U A124G U143C	0.08

Variant	self-cleavage
A2G U39C A141C	0.95
A2G U96C A138G	0
A2U U87C A121G A140G	0.51
A2G U23C C37U U108C	0.93
C3U A43G U47G U52A G70A U119C	0.23
C3U A42G A67U A77U A121U	0.17
A2U U81C U108C	1.23
A2U U13C U26G U39C A69G A79U U102C C123A	0.38
C3A A22G C113U	0.86
C3U U12C A136G A142C	2.03
C3U U23C A79G C101U U115A	1.31
A2G U46C G48A A77G	1.15
A2U U26C A107U	0
A2U A79U A124G	0.38
C3U A59G A65G U115C C128U A129G A136G	0
A2G U46C A77U A129G	0
A2U U85C U109A	0
A2G U20C A43G A59U A69G A77U U87G A140G	0
C3U A42G A107G	0.35
C3U C61U U73C	0.12
A2U U87A A117U	0.08
C3U C66U U87A G127A	0.03
A2U U29C U62C	0
C3U A79G U109C	0.46

Variant	self-cleavage
C3U A30U A42G A77G A129U A142G	1.23
A2G U62C A121G	0
A2G U15A A140G	0.8
C3G U14C A42G U46C A138G A142G	1.15
A2G U13A U52C A64U A77G	0.34
C3G A22G A31G A129C	0.66
A2G U45C U47C G127A A138G	2.21
A2U U13C A57U U62C	0.23
C3G A30U U46C	0.24
C3U A42G A64U U73G A129G	0.23
C3A A59G A107G	0
A2G U14C A22U U102C U132G	0.71
A2G U23C G33U U46A U112C U130C	1.84
A2G U14C U52A U87G	0.85
C3U U47A A77G	1.62
C3U U52A A65U U100C U119C	0.34
A2G U13A U115C	0
A2G U100C A140G	1.21
A2G U14C U26A U39C A57U U85A	0.18
A2G U62C U134C	0.3
A2U A65U U108C	0.2
C3U U9C U12C U52A	1.48
A2G U102A U108C	0.77
A2G U15A U119C	0.58

Variant	self-cleavage
A2G U14C A43G A67U C84A A94G	0.26
A2U A59G A117G	0
A2U G8A A43G G48U A77U U96C U143C	0.04
C3U A64U U108C	0.69
A2U C28G A65G U102C	0
A2G U14A U29C U91C C113A	1.4
A2G U96A U130C U134A	0.27
A2U A31U G48A A57G U119A	0.56
A2G U12G U15C A94U A121G	0.84
A2G U87A G126A G139A	0.28
C3U U20A U108A A117G G144A	0.53
A2G U87A A141G	0.48
C3U U104A U143A	0.83
A2G U45A U62C U85G	0.79
A2G U12C U119C	1.75
A2G U96C A142G	0.19
A2G U47G G105A A129G	1.41
C3U G70A U130C	0.38
A2U C18U A42G G126A	0.83
C3U U29C G55U A59U A138U	0.6
A2G U45C U46A G72A	1.23
A2U A57U U143C	0.11
C3U A43G C84U	0.11
A2G U20C G55U U112C	0.32

Variant	self-cleavage
A2G U91A U96C	0.5
A2G U15C U47C	2.3
A2G U20C A22G U39G U96A	0
A2G U13C U29C U73A A78G C128U	0.7
C3U U26C U112A	0.76
A2U C95G A107G C113A A141G	0
A2G U29A A43G U115G G122A	0.69
C3U U20C A78G U112A U130C	0.48
A2G U26A U47A	0.48
A2G U14C U87A	0.46
A2G U102A C131U A142G	1.36
A2U U26A A77U	0.72
C3U U15C A107G	1.58
A2G U39C U73A A141G A142G	0
C3A U15C A42G A43G U108C	1.41
C3G U39A U109C U112C	1.05
A2G U15C U115C	0.46
C3U A79G U134A A140G	0
A2G U20A A92U	0.78
C3U U29G U104C U134C C146A	1.15
A2G U20C U62C	0
A2G U14A A67G A117G	0
A2U A77U A138U	0.79
C3U G8A U14C U39C A59U G86A G127A	0.11

Variant	self-cleavage
C3A U73C A141G	1.31
C3U A57G A140G	0.22
A2G U13C U108C A129U	1.11
C3U A22G A121U	1.09
C3U G8A A64G G97A A107G A136G	0.07
C3U U81A U96A U104G	0.11
A2G U13C U100C	1.49
A2U U20A U96A U100A	0.1
A2G U39A U85C U115C U119C A141G	0
A2G U46C G105C	0.92
A2G U15A U39A A67U G83A U108A	0.15
C3U A43G U91C U96C	0
C3A A22U U26C A78G A117G	1.67
A2U A77U A78G A107G	0
A2U U23A A31G	1.49
C3U U14C A77G A107G	0
C3U G72A A138G	0.61
A2G U29C U112C	0.44
A2G U20C U143C	0.38
A2U A67G U96A A129C	0.51
C3U U15C U96G	0.33
A2G U13C A69G	0.24
C3U U15C A77G	1.34
A2G U45C U108C A121U	2.12

Variant	self-cleavage
C3U U87C U132C	0.13
A2G U85C U102A A140G	0
A2G U14C A94G	0.45
C3U G11A U115C A117U	1.43
C3A U73C A142C	1.06
A2G U12C U47C	0.24
A2U U13A U87C A141G	0.17
A2G U15C U108C C113A U134C A142G	1.44
C3U A30G U73C	0.66
A2U A22G A42G U73A	1.86
A2G U26G U29C	0.57
C3U A6G A24G U112A	0.92
A2U A22U G53A U62C A77U	0.12
A2G U29C A43U A69G	0.78
C3U U100C U130C A136G	1.67
A2G U62C U119A	0.16
A2G U15A U81A U87A A142U	0.21
A2U A65G U130A	0.05
C3G U14C A59U U73A A121G A140G	1.36
C3U U39C U134C	0.56
A2G U23C U100C	0.8
A2U U62C U119A	0.19
A2U U20C A42G A57U A142G	0.1
